Tested on: MLKL phosphorylation, HT29-L23 human colorectal adenocarcinoma cells
Assay: cells
Settings: read-out: pMLKL HCS Cell Assay (IC50, uM)

| SMILES | IC50 |
| --- | --- |
| COc1ncc(-c2cc(C(F)(F)F)c3c(N)ncnn23)cc1C(=O)N[C@H]1CCC[C@@H](c2ccc(Cl)cc2)C1 (racemic) [Example 1698, 5-(4-amino-5-(trifluoromethyl)pyrrolo[2,1-f][1,2,4]triazin-7-yl)-N-((1SR,3RS)-3-(4-chlorophenyl)cyclohexyl)-2-methoxynicotinamide] | 0.026 µM |
| COC[C@@H]1C[C@H](NC(=O)c2cc(-c3cc(C(F)(F)F)c4c(N)ncnn34)cnc2OC)CN1C(=O)OC(C)(C)C (racemic) [Example 1699, tert-butyl (2SR,4SR)-4-(5-(4-amino-5-(trifluoromethyl)pyrrolo[2,1-f][1,2,4]triazin-7-yl)-2-methoxynicotinamido)-2-(methoxymethyl)pyrrolidine-1-carboxylate] | 0.487 µM |
| COC[C@@H]1C[C@H](NC(=O)c2cc(-c3cc(C(F)(F)F)c4c(N)ncnn34)cnc2OC)CN1C(=O)C1CC(F)(F)C1 (racemic) [Example 1700, 5-(4-amino-5-(trifluoromethyl)pyrrolo[2,1-f][1,2,4]triazin-7-yl)-N-((3SR,5SR)-1-(3,3-difluorocyclobutane-1-carbonyl)-5-(methoxymethyl)pyrrolidin-3-yl)-2-methoxynicotinamide] | 0.456 µM |
| COc1ncc(-c2cc(C(F)(F)F)c3c(N)ncnn23)cc1C(=O)N[C@@H]1CC2(C[C@@H]1F)OCC(C)(C)CO2 (racemic) [Example 1846, 5-(4-amino-5-(trifluoromethyl)pyrrolo[2,1-f][1,2,4]triazin-7-yl)-N-((2RS,3SR)-3-fluoro-8,8-dimethyl-6,10-dioxaspiro[4.5]decan-2-yl)-2-methoxynicotinamide] | 0.457 µM |
| COc1ncc(-c2cc(C(F)(F)F)c3c(N)ncnn23)cc1C(=O)NC1CN(C(=O)C2CC(F)(F)C2)CC1F (single isomer, unassigned) [Example 37, 5-[4-amino-5-(trifluoromethyl)pyrrolo[2,1-f][1,2,4]triazin-7-yl]-N-[1-(3,3-difluorocyclobutanecarbonyl)-4-fluoropyrrolidin-3-yl]-2-methoxypyridine-3-carboxamide] | 0.042 µM |
| COc1ncc(-c2cc(C(F)(F)F)c3c(N)ncnn23)cc1C(=O)N[C@@H]1CN(CC(O)C(F)(F)F)C[C@@H]1F (single isomer, unassigned) [Example 44-1] | 0.0093 µM |
| COc1ncc(-c2cc(C(F)(F)F)c3c(N)ncnn23)cc1C(=O)N[C@H]1CN(CC(O)C(F)(F)F)CC1F (single isomer, unassigned) [Example 44-3] | 0.296 µM |
| [2H]C([2H])([2H])Oc1ncc(-c2cc(C(F)(F)F)c3c(N)ncnn23)cc1C(=O)NC1CN(C(=O)C2CCC(F)(F)C2)C[C@@H]1F (single isomer, unassigned) [Example 45-1] | 0.011 µM |
| COc1ncc(-c2cc(C(F)(F)F)c3c(N)ncnn23)cc1C(=O)NCCC(O)c1ccc(F)cc1 (single isomer, unassigned) [Example 126, 5-[4-amino-5-(trifluoromethyl)pyrrolo[2,1-f][1,2,4]triazin-7-yl]-2-methoxy-N-[(2-phenyloxan-3-yl)methyl]pyridine-3-carboxamide] | 0.016 µM |
| COc1ncc(-c2cc(C(F)(F)F)c3c(N)ncnn23)cc1C(=O)NC1CN(C(=O)C2CC(F)C2)C[C@@H]1F (single isomer, unassigned) [Example 348, 5-(4-amino-5-(trifluoromethyl)pyrrolo[2,1-f][1,2,4]triazin-7-yl)-N-(4-fluoro-1-(3-fluorocyclo-butane-1-carbonyl)pyrrolidin-3-yl)-2-methoxynicotinamide] | 0.0064 µM |
| Cc1ncc(-c2cc(C(F)(F)F)c3c(N)ncnn23)cc1C(=O)N[C@@H]1CN(C(=O)C2CC2(F)F)C[C@@H]1F (single isomer, unassigned) [Example 354, 5-[4-amino-5-(trifluoromethyl)pyrrolo[2,1-f][1,2,4]triazin-7-yl]-N-[1-(2,2-difluorocyclopropane-carbonyl)-4-fluoropyrrolidin-3-yl]-2-methylpyridine-3-carboxamide] | 0.265 µM |
| Cc1ncc(-c2cc(C(F)(F)F)c3c(N)ncnn23)cc1C(=O)NC1CN(C(=O)C2CC2(F)F)C[C@@H]1F (single isomer, unassigned) [Example 355, 5-[4-amino-5-(trifluoromethyl)pyrrolo[2,1-f][1,2,4]triazin-7-yl]-N-[1-(2,2-difluorocyclopropanecarbonyl)-4-fluoropyrrolidin-3-yl]-2-methyl-pyridine-3-carboxamide] | 0.0078 µM |
| COc1ncc(-c2cc(C(F)(F)F)c3c(N)ncnn23)cc1C(=O)N[C@@H]1CN(C(C)c2ccccc2)C[C@@H]1F (single isomer, unassigned) [Example 432] | 0.003 µM |
| COc1ncc(-c2cc(C(F)(F)F)c3c(N)ncnn23)cc1C(=O)N[C@@H]1CN(C(CC(F)(F)F)c2ccccc2)C[C@@H]1F (single isomer, unassigned) [Example 446] | 0.171 µM |
| COc1ncc(-c2cc(C(F)(F)F)c3c(N)ncnn23)cc1C(=O)NC1CN(C(C)c2ccccc2F)C[C@@H]1F (single isomer, unassigned) [Example 448] | 0.0067 µM |
| COc1ncc(-c2cc(C(F)(F)F)c3c(N)ncnn23)cc1C(=O)N[C@@H]1CN(C(C)c2ccccc2F)C[C@@H]1F (single isomer, unassigned) [Example 449] | 0.0028 µM |

| SMILES | IC50 |
| --- | --- |
| COc1ncc(-c2cc(C(F)(F)F)c3c(N)ncnn23)cc1C(=O)N[C@@H]1CN(C(C)c2ccncn2)C[C@@H]1F (single isomer, unassigned) [Example 452] | 0.101 µM |
| COc1ncc(-c2cc(C(F)(F)F)c3c(N)ncnn23)cc1C(=O)NC1CN(C(C)c2ccncn2)C[C@@H]1F (single isomer, unassigned) [Example 453] | 0.023 µM |
| COc1ncc(-c2cc(C(F)(F)F)c3c(N)ncnn23)cc1C(=O)NC1CN(C(C)c2ccc(F)c(F)c2)C[C@@H]1F (single isomer, unassigned) [Example 460] | 0.012 µM |
| Cc1nc(C)c(-c2cc(C(F)(F)F)c3c(N)ncnn23)cc1C(=O)N[C@@H]1CN(C(=O)C2CCC(F)(F)C2)C[C@@H]1F (single isomer, unassigned) [Example 526] | 0.108 µM |
| Nc1ncnn2c(-c3cc(C(=O)N[C@@H]4CN(C(=O)C5CCC(F)(F)C5)C[C@@H]4F)c(Cl)cc3F)cc(C(F)(F)F)c12 (single isomer, unassigned) [Example 886] | 0.0026 µM |
| COc1ncc(-c2cc(C(F)(F)F)c3c(N)ncnn23)cc1C(=O)N[C@@H]1CN(C(C)CC(O)C(F)(F)F)C[C@@H]1F (single isomer, unassigned) [Example 1381] | 0.071 µM |
| CCCC(N)(C(=O)N1CC(NC(=O)c2cc(-c3cc(C(F)(F)F)c4c(N)ncnn34)cnc2OC)[C@@H](F)C1)C(F)(F)F (single isomer, unassigned) [Example 1545] | 0.021 µM |
| Cc1ncc(-c2cc(C(F)(F)F)c3c(N)ncnn23)cc1C(=O)N1CCCC(C(O)c2ccc(F)cc2)C1 (single isomer, unassigned) [Example 1728, (5-(4-amino-5-(trifluoromethyl)pyrrolo[2,1-f][1,2,4]triazin-7-yl)-2-methylpyridin-3-yl)(3-((4-fluorophenyl)(hydroxy)methyl)piperidin-1-yl)methanone] | 0.025 µM |
| Cc1ncc(-c2cc(C(F)(F)F)c3c(N)ncnn23)cc1C(=O)N1CCCC(C)(C(O)c2ccc(F)cc2)C1 (single isomer, unassigned) [Example 1739, (5-(4-amino-5-(trifluoromethyl)pyrrolo[2,1-f][1,2,4]triazin-7-yl)-2-methylpyridin-3-yl)(3-((4-fluorophenyl)(hydroxy)methyl)-3-methylpiperidin-1-yl)methanone] | 0.046 µM |
| COc1ncc(-c2cc(C(F)(F)F)c3c(N)ncnn23)cc1C(=O)N[C@H]1CN(C(=O)c2ccccc2)C[C@H]1C (stereo in doubt) [Example 14, 5-[4-amino-5-(trifluoromethyl)pyrrolo[2,1-f][1,2,4]triazin-7-yl]-N-(1-benzoyl-4-methylpyrrolidin-3-yl)-2-methoxypyridine-3-carboxamide] | 2.62 µM |
| COc1ncc(-c2cc(C(F)(F)F)c3c(N)ncnn23)cc1C(=O)N[C@H]1CN(C(=O)C2CCCCC2)C[C@H]1C (stereo in doubt) [Example 16, 5-[4-amino-5-(trifluoromethyl)pyrrolo[2,1-f][1,2,4]triazin-7-yl]-N-(1-cyclohexanecarbonyl-4-methylpyrrolidin-3-yl)-2-methoxypyridine-3-carboxamide] | 1.58 µM |
| Cc1ncc(-c2cc(C(F)(F)F)c3c(N)ncnn23)cc1C(=O)NC1CN(C(=O)C2CCC(F)CC2)C[C@@H]1F (stereo in doubt) [Example 359, 5-[4-amino-5-(trifluoromethyl)pyrrolo [2,1-f][1,2,4]triazin-7-yl]-N-[4-fluoro-1-(4-fluorocyclohexanecarbonyl)pyrrolidin-3-yl]-2-methylpyridine-3-carboxamide] | 0.015 µM |
| COc1ncc(-c2cc(C(F)(F)F)c3c(N)ncnn23)cc1C(=O)NC1CN(C(=O)[C@@](C)(O)C(F)(F)F)CC[C@H]1F (stereo in doubt) [Example 1580, 5-[4-amino-5-(trifluoromethyl)pyrrolo[2,1-f][1,2,4]triazin-7-yl]-N-[(3R,4R)-4-fluoro-1-[(2R)-3,3,3-trifluoro-2-hydroxy-2-methylpropanoyl]piperidin-3-yl]-2-methoxypyridine-3-carboxamide] | 0.117 µM |
| COc1ncc(-c2cc(C(C)N3CCCCC3)c3c(N)ncnn23)cc1C(=O)NC1CN(C(=O)C(C)(O)C(F)(F)F)C[C@@H]1F (stereo in doubt) [Example 1591, 5-{4-amino-5-[1-(piperidin-1-yl)ethyl]pyrrolo[2,1-f][1,2,4]triazin-7-yl}-N-[(3R,4S)-4-fluoro-1-[(2S)-3,3,3-trifluoro-2-hydroxy-2-methylpropanoyl]pyrrolidin-3-yl]-2-methoxypyridine-3-carboxamide] | 0.0011 µM |
| CC(CCNC(=O)c1cccc(-c2ccc3c(N)ncnn23)c1)c1ccccc1 (centres unmarked) [Example 1, 3-{4-aminopyrrolo[2,1-f][1,2,4]triazin-7-yl}-N-(3-phenylbutyl)benzamide] | 0.077 µM |
| CC(CCNC(=O)c1cccc(-c2cc(C(F)(F)F)c3c(N)ncnn23)c1)c1ccccc1 (centres unmarked) [Example 2, 3-[4-amino-5-(trifluoromethyl)pyrrolo[2,1-f][1,2,4]triazin-7-yl]-N-(3-phenylbutyl)benzamide] | 0.031 µM |
